{
  "source": "patent US20110166063A1",
  "about": "(priority 2008, published 2011)",
  "test": "PEG release rate and stability, biphalin and its conjugates",
  "format": "physicochemical",
  "data": [
    {"substance": "(C2-20K)2-biphalin [Di-C2-PEG2-FMOC-NHS-20K-biphalin]", "values": [
      {"measurement": "PEG Release rate", "setting": "after 4 h at 37° C. in PBS, pH 7.2", "result": 50, "unit": "% after 4 h"}
    ]},
    {"substance": "(SBC-30K)2-biphalin [Di-mPEG-SBC-30K-biphalin]", "values": [
      {"measurement": "PEG Release rate", "setting": "after 50 min at 37° C. in 200 mM Na-phosphate, pH 7.4", "result": 55, "unit": "% after 50 min"}
    ]},
    {"substance": "(CAC-20K)2-biphalin [Di-CAC-PEG2-FMOC-NHS-20K-biphalin]", "values": [
      {"measurement": "PEG Release rate", "setting": "after 23 h at 37° C. in PBS, pH 7.2", "result": 15, "unit": "% after 23 h"}
    ]}
  ]
}
